Measured values taken from PubChem BioAssay AID485364 (National Center for Advancing Translational Sciences (NCATS), 2010).
Among all 360,000 compounds or so, about 11,000 (3.1%) were called active. The shares of active, inactive and inconclusive entries below differ from those in the screen. Calls come from the whole dose curve; as a rule, active = well fitted inhibition curve with a large enough effect; inconclusive = small, poorly fitted or top-dose-only effect; inactive = no such curve, though single readings can be large or run the other way. No potency is given beside an inconclusive call; the fits are too rough.
Note: nearly all actives have a fitted effect of over 60% in size.
Potency is the fitted concentration of half-maximal effect; tags give direction and shape of the fitted curve.

These molecules were tested against Schistosoma mansoni thioredoxin glutathione reductase (TGR) (UniProt Q962Y6) (assay: qHTS Assay for the Inhibitors of Schistosoma Mansoni Peroxiredoxins). Details: purified TGR, DTNB reduction, TNB absorbance 405 nm; series mostly up to 114 µM.
Method in brief: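 TGR 20 nM + NADPH 100 uM (dispensed conc.), cpd preinc 15 min RT; start with NADPH (500 uM addition) then DTNB (15 mM addition). Kinetic TNB absorbance, 405 nm filter. Four-parameter Hill fit across titration.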
In the case of `O=C(NC(Cc1ccccc1)C(=O)NC(Cc1ccccc1)C(=O)O)c1ccccc1` (stereo not drawn), the Potency is reported as active: 28.2 µM.
With `O=C(NCC(=O)N1CCC2(CC1)NCCc1[nH]cnc12)c1cccc(Cl)c1` the Potency was inconclusive [inhibitor, partial curve, poor fit].
With `COc1ccccc1C(CC(=O)O)NS(=O)(=O)c1ccc2c(c1)N(C(C)=O)CC(C)O2` (stereo not drawn) the Potency was “inactive”.
`Cc1occc1C(=O)N1CCCc2ccccc21` was tested, and the Potency was active: 44.7 µM.
With `CCOC(=O)[C@H]1[C@H]2COc3ccc(Br)cc3[C@@H]2N2C(=O)CN(Cc3ccc(F)cc3)C(=O)[C@@]12C` the Potency was “inactive”.
For `Cc1cccc(NC(=O)CNC(=O)CN2C(=O)NC3(CCCCC3C)C2=O)c1C` (stereo not drawn), the Potency was inconclusive [inhibitor, partial curve].
In the case of `O=C(Cc1ccc(S(=O)(=O)N2CCOCC2)s1)Nc1ccccc1N1CCOCC1`, the Potency is reported as inconclusive [inhibitor, partial curve].
With `Cc1cc2c(NC(=O)Nc3ccccc3)cccc2nn1` the Potency was inconclusive [inhibitor, partial curve].
With `COc1ccc(/C(O)=C2/C(=O)C(=O)N(c3ccccn3)C2c2cccc(Cl)c2)cc1` (stereo not drawn) the Potency was inconclusive [inhibitor, partial curve].
In the case of `O=C(O)c1cc(O)c2c(c1)[C@H]([C@H]1c3cc(C(=O)O)cc(O)c3C(=O)c3c(O[C@@H]4O[C@H](CO)[C@@H](O)[C@H](O)[C@H]4O)cccc31)c1cccc(OC3O[C@H](CO)[C@@H](O)[C@H](O)[C@H]3O)c1C2=O` (stereo partly drawn), the Potency is reported as inconclusive [inhibitor, partial curve].
For `COc1ccc(C2NN=C(c3c[nH]c4ccccc34)C2O)cc1` (stereo not drawn), the Potency was inconclusive [inhibitor, partial curve].
For `Cc1ccc(N2C(N)=C(C#N)C(c3cccs3)C3=C2CC(C)(C)CC3=O)cc1` (stereo not drawn), the Potency was inconclusive [inhibitor, partial curve].
For `C#CCNC(=O)C1=C[C@H](c2cn(C(C)=O)c3ccccc23)C[C@H](OCc2ccc(CO)cc2)O1`, the Potency was inconclusive [inhibitor, partial curve].
`N#C/C(=C\c1ccc(N2CCOCC2)cc1)c1ccccc1` was tested, and the Potency was “inactive”.
`COc1ccc(CNC(=O)C(=O)NCC2CCCO2)cc1` (stereo not drawn) was tested, and the Potency was “inactive”.
In the case of `CCOC(=O)CSc1nc(C2CC2)cc(-c2ccc(F)cc2)c1C#N`, the Potency is reported as inconclusive [inhibitor, partial curve, poor fit].
`O=C(NNC(=O)c1cccc2ccccc12)c1ccco1` was tested, and the Potency was “inactive”.
For `Cc1cc(C)c(C#N)c(SCCS(=O)(=O)c2ccc(Cl)cc2)n1`, the Potency was inconclusive [inhibitor, single point].
